Test results: the supplement of paper PMC8728848
Some of the results follow.

Columns and labels:
Assay in all cases: glycan array binding signal (z-score within array); higher = stronger binding
Conditions in all cases: glycan notation: IUPAC condensed, linker removed
[1] = target: Gal(a1-3)Gal(b1-4)GlcNAc(b1-2)Man
Method in brief: (§1)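 The binding signal is a Z-score computed within each array and averaged over linkers. Arrays of the same protein sequence at different concentrations or buffers were also averaged together. Data originate from 3228 arrays in the Consortium for Functional Glycomics database, kept only where the protein sequence was available.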

[2] = target: Gal(a1-3)Gal(b1-4)GlcNAc(b1-2)Man(a1-3)[Gal(a1-3)Gal(b1-4)GlcNAc(b1-2)Man(a1-6)]Man(b1-4)GlcNAc(b1-4)GlcNAc
Method in brief: as §1

[3] = target: Gal(a1-3)Gal(b1-4)GlcNAc(b1-3)GalNAc
Method in brief: as §1

[4] = target: Gal(a1-3)Gal(b1-4)GlcNAc(b1-6)GalNAc
Method in brief: as §1

[5] = target: Gal(a1-3)Gal(b1-4)[Fuc(a1-3)]GlcNAc
Method in brief: as §1

[6] = target: Gal(a1-3)Gal(b1-4)[Fuc(a1-3)]GlcNAc(b1-2)Man(a1-3)[Gal(a1-3)Gal(b1-4)[Fuc(a1-3)]GlcNAc(b1-2)Man(a1-6)]Man(b1-4)GlcNAc(b1-4)GlcNAc
Method in brief: as §1

[7] = target: Gal(a1-3)GalNAc
Method in brief: as §1

[8] = target: Gal(a1-3)[Gal(a1-4)]Gal(b1-4)GlcNAc
Method in brief: as §1

[9] = target: Gal(a1-4)Gal(b1-3)GlcNAc(b1-2)Man(a1-3)[Gal(a1-4)Gal(b1-3)GlcNAc(b1-2)Man(a1-6)]Man(b1-4)GlcNAc(b1-4)GlcNAc
Method in brief: as §1

[10] = target: Gal(a1-4)Gal(b1-4)Glc
Method in brief: as §1

[11] = target: Gal(a1-4)Gal(b1-4)GlcNAc
Method in brief: as §1

[12] = target: Gal(a1-4)Gal(b1-4)GlcNAc(b1-2)Man(a1-3)[Gal(a1-4)Gal(b1-4)GlcNAc(b1-2)Man(a1-6)]Man(b1-4)GlcNAc(b1-4)GlcNAc
Method in brief: as §1

[13] = target: Gal(a1-4)Gal(b1-4)GlcNAc(b1-3)Gal(b1-4)Glc
Method in brief: as §1

[14] = target: Gal(a1-4)GlcNAc
Method in brief: as §1

[15] = target: Gal(a1-6)Glc
Method in brief: as §1

[16] = target: Gal(b1-2)Gal
Method in brief: as §1

[17] = target: Gal(b1-3)Gal
Method in brief: as §1

[18] = target: Gal(b1-3)Gal(b1-4)GlcNAc
Method in brief: as §1

[19] = target: Gal(b1-3)GalNAc
Method in brief: as §1

[20] = target: Gal(b1-3)GalNAc(a1-3)[Fuc(a1-2)]Gal(b1-4)Glc
Method in brief: as §1

[21] = target: Gal(b1-3)GalNAc(a1-3)[Fuc(a1-2)]Gal(b1-4)GlcNAc
Method in brief: as §1

[22] = target: Gal(b1-3)GalNAc(b1-3)Gal
Method in brief: as §1

[23] = target: Gal(b1-3)GalNAc(b1-3)Gal(a1-4)Gal(b1-4)Glc
Method in brief: as §1

[24] = target: Gal(b1-3)GalNAc(b1-4)Gal(b1-4)Glc
Method in brief: as §1

[25] = target: Gal(b1-3)GalNAc(b1-4)[Neu5Ac(a2-3)]Gal(b1-4)Glc
Method in brief: as §1

[26] = target: Gal(b1-3)GlcNAc
Method in brief: as §1

[27] = target: Gal(b1-3)GlcNAc(a1-3)Gal(b1-4)GlcNAc
Method in brief: as §1

[28] = target: Gal(b1-3)GlcNAc(a1-6)Gal(b1-4)GlcNAc
Method in brief: as §1

[29] = target: Gal(b1-3)GlcNAc(b1-2)Man
Method in brief: as §1

[30] = target: Gal(b1-3)GlcNAc(b1-2)Man(a1-3)[Gal(b1-3)GlcNAc(b1-2)Man(a1-6)]Man(b1-4)GlcNAc(b1-4)GlcNAc
Method in brief: as §1

[31] = target: Gal(b1-3)GlcNAc(b1-2)Man(a1-3)[Gal(b1-3)GlcNAc(b1-2)Man(a1-6)]Man(b1-4)GlcNAc(b1-4)[Fuc(a1-6)]GlcNAc
Method in brief: as §1

[32] = target: Gal(b1-3)GlcNAc(b1-2)Man(a1-3)[GlcNAc(b1-4)][Gal(b1-3)GlcNAc(b1-2)Man(a1-6)]Man(b1-4)GlcNAc(b1-4)GlcNAc
Method in brief: as §1

[33] = target: Gal(b1-3)GlcNAc(b1-2)[Gal(b1-3)GlcNAc(b1-6)]Man(a1-6)[Gal(b1-3)GlcNAc(b1-2)Man(a1-3)]Man(b1-4)GlcNAc(b1-4)GlcNAc
Method in brief: as §1

[34] = target: Gal(b1-3)GlcNAc(b1-3)Gal(b1-3)GlcNAc
Method in brief: as §1

[35] = target: Gal(b1-3)GlcNAc(b1-3)Gal(b1-4)Glc
Method in brief: as §1

[36] = target: Gal(b1-3)GlcNAc(b1-3)Gal(b1-4)GlcNAc
Method in brief: as §1

[37] = target: Gal(b1-3)GlcNAc(b1-3)Gal(b1-4)GlcNAc(b1-2)Man(a1-3)[Gal(b1-3)GlcNAc(b1-3)Gal(b1-4)GlcNAc(b1-2)Man(a1-6)]Man(b1-4)GlcNAc(b1-4)GlcNAc
Method in brief: as §1

[38] = target: Gal(b1-3)GlcNAc(b1-3)Gal(b1-4)GlcNAc(b1-2)[Gal(b1-3)GlcNAc(b1-3)Gal(b1-4)GlcNAc(b1-6)]Man(a1-6)[Gal(b1-3)GlcNAc(b1-3)Gal(b1-4)GlcNAc(b1-2)Man(a1-3)]Man(b1-4)GlcNAc(b1-4)[Fuc(a1-6)]GlcNAc
Method in brief: as §1

[39] = target: Gal(b1-3)GlcNAc(b1-3)Gal(b1-4)GlcNAc(b1-3)Gal(b1-4)GlcNAc(b1-2)[Gal(b1-3)GlcNAc(b1-3)Gal(b1-4)GlcNAc(b1-3)Gal(b1-4)GlcNAc(b1-6)]Man(a1-6)[Gal(b1-3)GlcNAc(b1-3)Gal(b1-4)GlcNAc(b1-3)Gal(b1-4)GlcNAc(b1-2)Man(a1-3)]Man(b1-4)GlcNAc(b1-4)[Fuc(a1-6)]GlcNAc
Method in brief: as §1

[40] = target: Gal(b1-3)GlcNAc(b1-3)Gal(b1-4)GlcNAc(b1-6)[Gal(b1-3)GlcNAc(b1-3)]Gal(b1-4)Glc
Method in brief: as §1

[41] = target: Gal(b1-3)GlcNAc(b1-3)Gal(b1-4)[Fuc(a1-3)]GlcNAc
Method in brief: as §1

[42] = target: Gal(b1-3)GlcNAc(b1-3)Gal(b1-4)[Fuc(a1-3)]GlcNAc(b1-6)[Gal(b1-3)GlcNAc(b1-3)]Gal(b1-4)Glc
Method in brief: as §1

[43] = target: Gal(b1-3)GlcNAc(b1-3)GalNAc
Method in brief: as §1

[44] = target: Gal(b1-3)GlcNAc(b1-6)Gal(b1-4)GlcNAc
Method in brief: as §1

[45] = target: Gal(b1-3)GlcNAc(b1-6)GalNAc
Method in brief: as §1

B1: Nc3LysM (protein)
chain: QFTVPPDTTAEPNTIKTCTWWHVAGSGDSCTSIASTYGITSEQFARWDMETTDSPKNPSVATACKLTVGNSYCIENNFGQDDPPTPSISSSTLIGTATTSTTASTTTGNGISTPTPIQEGMETATTTTSSGNGITTPTPTQAGMETVGNCDRFHLVKSGDQCGTIASTYGITLANFYSWNPAVGTSCQSLWLDTYVCVRTIGFVPPKTTTTTTKKPTSTTSAGGVATPTPTQPGMETVSGCKKFHKGRGNVSTVASGDQCGTIATRYGISLANFYSWNPAVGSSCQTLWLDYYVCVGR
glycan array binding signal (z-score) [1]: -0.207
glycan array binding signal (z-score) [2]: -0.179
glycan array binding signal (z-score) [3]: 0.188
glycan array binding signal (z-score) [4]: -0.131
glycan array binding signal (z-score) [5]: -0.186
glycan array binding signal (z-score) [6]: 0.012
glycan array binding signal (z-score) [7]: -0.107
glycan array binding signal (z-score) [8]: 0.014
glycan array binding signal (z-score) [9]: -0.078
glycan array binding signal (z-score) [10]: 0.092
glycan array binding signal (z-score) [11]: 0.007
glycan array binding signal (z-score) [12]: 0.082
glycan array binding signal (z-score) [13]: -0.212
glycan array binding signal (z-score) [14]: -0.057
glycan array binding signal (z-score) [15]: -0.157
glycan array binding signal (z-score) [16]: -0.015
glycan array binding signal (z-score) [17]: 0.075
glycan array binding signal (z-score) [18]: -0.051
glycan array binding signal (z-score) [19]: -0.04
glycan array binding signal (z-score) [20]: 0.003
glycan array binding signal (z-score) [21]: -0.057
glycan array binding signal (z-score) [22]: -0.026
glycan array binding signal (z-score) [23]: -0.214
glycan array binding signal (z-score) [24]: -0.079
glycan array binding signal (z-score) [25]: -0.212
glycan array binding signal (z-score) [26]: -0.035
glycan array binding signal (z-score) [27]: -0.15
glycan array binding signal (z-score) [28]: -0.041
glycan array binding signal (z-score) [29]: -0.189
glycan array binding signal (z-score) [30]: 0.063
glycan array binding signal (z-score) [31]: -0.069
glycan array binding signal (z-score) [32]: 0.083
glycan array binding signal (z-score) [33]: -0.2
glycan array binding signal (z-score) [34]: -0.167
glycan array binding signal (z-score) [35]: -0.145
glycan array binding signal (z-score) [36]: -0.043
glycan array binding signal (z-score) [37]: -0.15
glycan array binding signal (z-score) [38]: 0.304
glycan array binding signal (z-score) [39]: 0.175
glycan array binding signal (z-score) [40]: -0.063
glycan array binding signal (z-score) [41]: -0.169
glycan array binding signal (z-score) [42]: -0.082
glycan array binding signal (z-score) [43]: -0.042
glycan array binding signal (z-score) [44]: -0.053
glycan array binding signal (z-score) [45]: -0.07
